Experimental data as given in PubChem BioAssay AID504339 (National Center for Advancing Translational Sciences (NCATS), 2011).
Out of some 390,000 compounds screened, about 17,000 (4.4%) were called active. The shares of active, inactive and inconclusive entries below differ from those in the screen. Calls come from the whole dose curve; as a rule, active = well fitted inhibition curve with a large enough effect; inconclusive = small, poorly fitted or top-dose-only effect; inactive = no such curve, though single readings can be large or run the other way. Where the call is inconclusive, the potency comes from a doubtful curve fit.

biological target: Lysine-specific demethylase 4A (Homo sapiens) (UniProt O75164); assay: qHTS Assay for Inhibitors of JMJD2A-Tudor Domain; settings: AlphaScreen JMJD2A-Tudor / H3K4me3 peptide binding; activity change, negative = inhibition: at 114 µM (top of the series); note: nearly all actives have a fitted effect of over 50% in size
% is set by controls: 0 for no effect and ±100 for the full control effect; potency is the fitted concentration of half-maximal effect; tags give direction and shape of the fitted curve.

Sequence of UniProt O75164 (O75164 whole entry, looked up, the tested form may be a part): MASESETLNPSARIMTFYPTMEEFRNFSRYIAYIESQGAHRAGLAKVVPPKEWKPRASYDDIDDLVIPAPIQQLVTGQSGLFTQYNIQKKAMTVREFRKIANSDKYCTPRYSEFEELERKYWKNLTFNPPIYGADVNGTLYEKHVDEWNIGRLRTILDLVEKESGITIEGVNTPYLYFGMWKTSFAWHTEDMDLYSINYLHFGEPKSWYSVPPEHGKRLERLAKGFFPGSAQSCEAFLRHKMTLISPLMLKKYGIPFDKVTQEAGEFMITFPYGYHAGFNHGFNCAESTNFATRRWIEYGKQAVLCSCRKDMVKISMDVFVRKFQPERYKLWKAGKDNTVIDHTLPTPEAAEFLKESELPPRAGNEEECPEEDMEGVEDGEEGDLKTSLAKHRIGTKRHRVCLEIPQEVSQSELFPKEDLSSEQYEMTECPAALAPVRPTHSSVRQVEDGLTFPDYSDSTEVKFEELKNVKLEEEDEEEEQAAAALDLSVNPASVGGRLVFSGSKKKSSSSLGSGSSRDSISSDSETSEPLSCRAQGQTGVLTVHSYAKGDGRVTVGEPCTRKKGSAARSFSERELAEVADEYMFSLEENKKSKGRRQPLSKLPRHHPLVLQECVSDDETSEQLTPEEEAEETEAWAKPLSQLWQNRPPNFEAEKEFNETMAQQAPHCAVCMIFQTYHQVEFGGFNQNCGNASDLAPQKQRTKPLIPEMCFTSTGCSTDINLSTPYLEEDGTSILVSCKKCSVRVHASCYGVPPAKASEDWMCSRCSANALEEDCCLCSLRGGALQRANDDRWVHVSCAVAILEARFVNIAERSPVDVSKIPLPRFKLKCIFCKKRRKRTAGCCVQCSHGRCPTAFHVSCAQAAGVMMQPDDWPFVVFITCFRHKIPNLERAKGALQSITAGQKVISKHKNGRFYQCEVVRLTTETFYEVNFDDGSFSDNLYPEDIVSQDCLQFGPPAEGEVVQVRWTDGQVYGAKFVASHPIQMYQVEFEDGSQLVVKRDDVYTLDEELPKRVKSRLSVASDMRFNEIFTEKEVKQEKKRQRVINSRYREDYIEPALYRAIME

Structure (SMILES)	activity change, negative = inhibition	Potency
CN(C)S(=O)(=O)c1ccc(Cl)c(NC(=O)COC(=O)CNS(=O)(=O)c2c(F)cccc2F)c1	inactive: 1.01%	–
COc1ccc(C(=O)c2oc3ccc(Br)cc3c2NC(C)=O)cc1	inactive: -14.3%	–
CC(=O)N(C)c1ccc(N=Cc2c(O)ccc3ccccc23)cc1	–	inconclusive: 22.4 µM [inhibitor, single point]
COc1cc(OC)c2ccc(=O)oc2c1C(CC(=O)N1CCCC(C)C1)c1ccc2c(c1)OCO2 (stereo unspecified)	–	inconclusive: 56.2 µM [inhibitor, partial curve]
Cc1ccc(S(=O)(=O)NCCC(=O)NNC(=O)COc2ccccc2Cl)cc1C	inactive: 7.77%	–
Oc1ccc(Br)cc1/C=N/N1CCN(Cc2cccc3ccccc23)CC1	–	inconclusive: 63.1 µM [inhibitor, partial curve, poor fit]
S=c1[nH]nc(Cn2cnc3ccccc32)n1-c1ccccc1Cl	–	active: 50.1 µM
Cc1cc(Cl)ccc1OCCCC(=O)NN	inactive: -7.8%	–
CN1CCN(CCCNC(=O)c2ccc(/C=C3\Sc4ccccc4N(Cc4ccccc4F)C3=O)cc2)CC1	–	inconclusive: 39.8 µM [inhibitor, partial curve]
O=C(COc1ccccc1-c1nc(-c2ccccc2)no1)Nc1ccc([N+](=O)[O-])cc1	–	inconclusive: 50.1 µM [inhibitor, partial curve]
S=c1[nH]nc(-c2cccnc2)n1-c1ccc2c(c1)OCCO2	–	active: 25.1 µM
O=C(CSc1nnc(-c2ccc(Cl)cc2)n1Cc1ccco1)NCc1ccc2c(c1)OCO2	–	inconclusive: 89.1 µM [inhibitor, single point]
Cc1ccc(CNC(=O)Cn2cnc(C(=O)Nc3ccc(C)c(C)c3)n2)o1	–	inconclusive: 44.7 µM [inhibitor, partial curve]
N#Cc1cccc(S(=O)(=O)NCC(=O)OCC(=O)c2ccc[nH]2)c1	–	inconclusive: 39.8 µM [inhibitor, single point]
Cc1cccc(C(=O)n2c(=S)nc3cc(C)ccn32)c1	–	active: 39.8 µM
COc1ccccc1-c1nnc(NC(=O)c2cccc(N3C(=O)CCC3=O)c2)o1	–	active: 35.5 µM
COc1ccc(NC(=O)Cc2cccs2)c(OC)c1	inactive: -5.71%	–
COc1ccccc1-n1c(-c2cc(-c3ccc(F)cc3)n[nH]2)n[nH]c1=S	–	inconclusive: 56.2 µM [inhibitor, partial curve]
Cc1cc(C)n2ncc(C(=O)O)c2n1	–	inconclusive: 25.1 µM [inhibitor, partial curve]
CN(CC(=O)Nc1c(Cl)cccc1Cl)C(=O)CCC1CCCC1	inactive: -5.52%	–
CCOc1ccc(S(=O)(=O)N2CCC(C(=O)NCc3ccccn3)CC2)cc1C	inactive: 0.352%	–
CCN(C(=O)Cn1c(C(=O)OC)cc2sccc21)c1cccc(C)c1	inactive: -18.2%	–
FC(F)(F)c1cccc(Nc2nc3nonc3nc2Nc2ccc(Cl)cc2)c1	–	inconclusive: 28.2 µM [inhibitor, partial curve]
Cc1ccccc1NC(=O)c1c(C)oc2ccc(O)c(CN3CCCCCC3)c12	inactive: -26.4%	–
Cc1nc(-c2ccc(S(=O)(=O)N3CCN(c4ccccc4F)CC3)cc2)co1	–	inconclusive: 50.1 µM [inhibitor, partial curve]
Cc1nc(NC(=O)CC(C)C)sc1-c1csc(Nc2ccc(Cl)cc2Cl)n1	–	inconclusive: 63.1 µM [inhibitor, partial curve]

Structure (SMILES)	activity change, negative = inhibition	Potency
CC1SC(=NC(=O)c2ccco2)NC1=O (stereo unspecified)	–	inconclusive: 15.8 µM [inhibitor, full curve]
COc1c(OC2OC(C(=O)O)C(O)C(O)C2O)cc(O)c2c(=O)cc(-c3ccccc3)oc12 (stereo unspecified)	–	inconclusive: 100 µM [inhibitor, single point]
CC(C)(Cc1ccc(O)cc1)NC(=O)CC(=O)N=Nc1c(O)[nH]c2cc(Br)ccc12	–	inconclusive: 63.1 µM [inhibitor, partial curve, poor fit]
COc1cc(CN2CCN(S(=O)(=O)c3ccccc3)CC2)cc(OC)c1OC	–	active: 20 µM
CCN(CC)CCC(=O)Nc1cccc2c1C(=O)c1ccccc1C2=O	–	inconclusive: 50.1 µM [inhibitor, partial curve]
CCCn1c(CCNc2nc(-c3cccc(Br)c3)cs2)nc2ccccc21	inactive: -16.4%	–
CCCCC12CN3CC(C)(CN(C1)C3c1ccc(OCc3ccccc3)cc1)C2=O (stereo unspecified)	inactive: 0.943%	–
CSCC[C@H](NC(=O)N1CCn2c1nc1ccccc12)C(=O)N[C@H](Cc1ccccc1)C(=O)O	–	inconclusive: 89.1 µM [inhibitor, partial curve]
COc1cc(/C=N/N(C)S(=O)(=O)c2ccc(C)cc2)cc([N+](=O)[O-])c1O	inactive: -31%	–
CCn1cc2nc(SCc3cc(C)ccc3C)n(Cc3ccc(Cl)cc3)c(=O)c2n1	inactive: -3.9%	–
CCN(CC)c1ccc(CN(C(=O)c2cc(=O)c3ccccc3o2)C2CCS(=O)(=O)C2)cc1 (stereo unspecified)	–	inconclusive: 39.8 µM [inhibitor, full curve]
CCn1c(CSc2nc3ccccc3[nH]2)n[nH]c1=S	–	active: 6.31 µM
CN(Cc1ccccc1)c1ncnc2ccc(Br)cc12	–	inconclusive: 3.16 µM [inhibitor, single point]
Nc1ccc2nc(-c3ccc(N)c(Cl)c3)[nH]c2c1	–	inconclusive: 56.2 µM [inhibitor, partial curve]
CC(C)CNC(=S)N(CCCO)Cc1cc2cc3c(cc2[nH]c1=O)OCO3	inactive: -9.79%	–
CC1=C(C(=O)Nc2ccccc2)C(c2ccc(Br)cc2)n2nc(CCCO)nc2N1 (stereo unspecified)	inactive: 9%	–
COc1ccc(-n2ncc3c2ncn2nc(-c4ccc(OC)c(OC)c4)nc32)cc1	inactive: 4.17%	–
CC(O)CCc1nc2ccc(C(=O)O)cc2[nH]1 (stereo unspecified)	–	inconclusive: 39.8 µM [inhibitor, partial curve]
CC(C)c1ccc(C2CC(=O)N3CN(C4CCCCC4)CSC3=C2C#N)cc1 (stereo unspecified)	–	active: 25.1 µM
CC1CCCC(NC(=O)CCC(=O)N2CCOc3ccccc32)C1C (stereo unspecified)	–	inconclusive: 15.8 µM [inhibitor, full curve]
CC1CN(CCCCOc2ccc(F)cc2)CC(C)O1 (stereo unspecified)	inconclusive: -100% [inhibitor]	–
CC(=O)CSc1nc(-c2cccs2)c(C#N)c(=O)[nH]1	inactive: -31.2%	–
Cc1cc2nnc(SC3CCOC3=O)n2c2ccccc12 (stereo unspecified)	–	active: 10 µM
CCOc1ccc2nc(NC3=NC(c4ccc(OC)cc4)CC(=O)N3)nc(C)c2c1 (stereo unspecified)	–	active: 79.4 µM
CCOC(=O)c1c(CN2CCN(C)CC2)oc2ccc(OC)cc12	–	inconclusive: 89.1 µM [inhibitor, single point]
CCC(C)Nc1nc2c(c(=O)[nH]c(=O)n2C)n1Cc1ccc(F)cc1 (stereo unspecified)	inactive: -15.9%	–

Structure (SMILES)	activity change, negative = inhibition	Potency
Cc1ccccc1Nc1c(-c2ccc(N3CCOCC3)cc2)nc2cccc(C)n12	–	active: 22.4 µM
Cc1nnc(-c2ccc(Oc3ccc(C)c(C)c3)c([N+](=O)[O-])c2)o1	–	inconclusive: 28.2 µM [inhibitor, full curve, poor fit]
CCC(=O)Nc1ccc(N2CCCCC2)c(C(=O)Nc2ccc(OC)cc2)c1	–	inconclusive: 17.8 µM [inhibitor, partial curve]
CCC1CCc2[nH]nc(C(=O)O)c2C1 (stereo unspecified)	–	active: 50.1 µM
C=Cc1ccc(Cn2c(C(=O)O)c(CNCCc3ccco3)c3ccc(C)cc32)cc1	–	inconclusive: 56.2 µM [inhibitor, partial curve]
Cc1cc(OCc2cc(C(=O)N(C)C(C)c3ccccn3)no2)cc(C)c1Cl (stereo unspecified)	inactive: 16.4%	–
C/C(=N\NC(=O)Cc1ccc(Cl)cc1)c1ccccn1	–	active: 56.2 µM
O=C(Nc1nc2ccccc2n1CCOc1ccccc1)c1ccco1	inactive: -6.53%	–
CCCCCCCC[n+]1cccc(C(=O)N(CC)CC)c1	–	inconclusive: 39.8 µM [inhibitor, partial curve, poor fit]
CC(Sc1nnnn1C1CCCCC1)C(=O)O (stereo unspecified)	–	active: 11.2 µM
Cc1cccc(C)c1Nc1c(-c2ccccn2)nc2ccc(Cl)cn12	–	inconclusive: 2.51 µM [inhibitor, full curve, poor fit]
CN(C(=O)C1CCCCC1)C1(C)CCS(=O)(=O)C1 (stereo unspecified)	inactive: -0.984%	–
COc1ccc(Nc2ncccc2C(=O)NCc2ccccc2)cc1	–	inconclusive: 63.1 µM [inhibitor, partial curve]
COc1ccc(CNc2nc(NCc3ccc(OC)c(OC)c3)n(C(=O)c3cccs3)n2)cc1OC	–	inconclusive: 15.8 µM [inhibitor, full curve]
COc1ccc(S(=O)(=O)NCCSC(C)(C)C)c(Cl)c1Cl	–	inconclusive: 79.4 µM [inhibitor, single point]
NC(=O)C1CCN(Cc2ccc(OCc3ccccc3)cc2)CC1	–	active: 3.55 µM
C/C(=N\NC(=O)CN(c1ccccc1Br)S(C)(=O)=O)c1cccs1	–	active: 22.4 µM
COc1cc2nc(C)sc2cc1SC	–	inconclusive: 39.8 µM [inhibitor, single point]
CN(C)S(=O)(=O)c1cccc(NC(=O)CSc2cccc3cccnc23)c1	–	inconclusive: 31.6 µM [inhibitor, single point]
Cn1cccc1C1NC(=O)c2c(sc3c2CCC(C(C)(C)C)C3)N1 (stereo unspecified)	inactive: -25.4%	–
O=C(CCc1ccccc1Cl)Nc1cc(S(=O)(=O)N2CCOCC2)ccc1N1CCCC1	inactive: -19.6%	–
COC(=O)C1=C(C(=O)OC)C(c2cc(Cl)ccc2O)c2sc(=O)[nH]c2S1 (stereo unspecified)	–	inconclusive: 89.1 µM [inhibitor, partial curve]
Cc1cc(C(C)(C)C)cc(S(=O)(=O)Nc2ccc(O)c(C(=O)O)c2)c1C	inactive: -14.1%	–
CC[C@]12c3[nH]c4cc(-c5ccco5)ccc4c3CCN1C(=O)[C@@H](CC(=O)NCc1ccco1)C[C@@H]2C(=O)N1CCN(C(=O)c2ccco2)CC1	–	inconclusive: 56.2 µM [inhibitor, partial curve]
